Laboratory results from PubChem BioAssay AID720709 (National Center for Advancing Translational Sciences (NCATS), 2013).
Screen size: about 360,000 compounds; about 520 (0.14%) were called active. Inconclusive results, whose numbers are uncertain, are shown with a selection of clear calls. The call rests on the fitted dose curve; in most records, active means well fitted inhibition curve with a large enough effect; inconclusive means small, poorly fitted or top-dose-only effect; inactive means no such curve, though single readings can be large or run the other way. No potency is given beside an inconclusive call; the fits are too rough.

Target: Rap guanine nucleotide exchange factor 3 (Homo sapiens) (UniProt O95398)
Sequence of UniProt O95398 (O95398 whole entry, looked up): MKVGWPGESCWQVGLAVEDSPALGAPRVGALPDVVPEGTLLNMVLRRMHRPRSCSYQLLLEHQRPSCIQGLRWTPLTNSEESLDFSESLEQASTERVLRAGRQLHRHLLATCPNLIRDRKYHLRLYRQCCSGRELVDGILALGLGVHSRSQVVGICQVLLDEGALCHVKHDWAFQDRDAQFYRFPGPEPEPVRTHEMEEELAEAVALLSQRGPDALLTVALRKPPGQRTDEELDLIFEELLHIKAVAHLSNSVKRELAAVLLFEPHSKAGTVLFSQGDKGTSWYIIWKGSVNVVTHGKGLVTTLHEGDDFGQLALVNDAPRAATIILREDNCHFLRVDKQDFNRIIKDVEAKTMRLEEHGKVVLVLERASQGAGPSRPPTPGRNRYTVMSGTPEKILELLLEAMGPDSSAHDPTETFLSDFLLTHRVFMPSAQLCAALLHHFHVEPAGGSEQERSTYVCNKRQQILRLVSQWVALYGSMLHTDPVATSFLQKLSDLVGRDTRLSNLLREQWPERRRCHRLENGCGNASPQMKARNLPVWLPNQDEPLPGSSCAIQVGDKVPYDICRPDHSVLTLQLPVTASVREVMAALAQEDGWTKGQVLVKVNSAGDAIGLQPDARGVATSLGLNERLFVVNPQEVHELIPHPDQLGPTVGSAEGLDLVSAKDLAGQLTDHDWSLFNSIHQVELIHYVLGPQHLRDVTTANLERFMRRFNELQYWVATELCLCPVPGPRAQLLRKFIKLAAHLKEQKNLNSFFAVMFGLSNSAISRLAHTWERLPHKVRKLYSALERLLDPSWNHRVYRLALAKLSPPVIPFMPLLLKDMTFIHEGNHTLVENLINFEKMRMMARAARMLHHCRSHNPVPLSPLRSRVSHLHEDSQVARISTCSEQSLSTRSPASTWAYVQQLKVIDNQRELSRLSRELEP
Test: qHTS for Antagonist of cAMP-regulated guanine nucleotide exchange factor 3 (EPAC1): primary screen; further: nearly all actives have a fitted effect of over 50% in size;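 on activity change, negative = inhibition: plate controls were vehicle for no effect and positive control for full effect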
Details: EPAC1 GEF assay, Rap1b-BODIPY-GDP exchange fluorescence; activity change, negative = inhibition: at 115 µM (top of the series)
Potency means the concentration at half of the fitted maximal effect; tags describe the fitted curve by direction and shape.

Row | Compound | Potency | activity change, negative = inhibition
1 | COC(=O)Nc1nc2ccc(Sc3ccccc3)cc2[nH]1 | inconclusive [inhibitor, full curve, poor fit] | 
2 | CC(C)c1ccc(C(=O)CN2C(=O)NC3(CCc4ccccc43)C2=O)cc1 (configuration not stated) | inconclusive [inhibitor, single point] | 
3 | Cc1cc2cc(C#N)c(SCC(=O)Nc3nonc3C)nc2cc1C | inconclusive [inhibitor, single point] | 
4 | CCN(C(=O)COC(=O)c1cnc(C)cn1)C1CCS(=O)(=O)C1 (configuration not stated) |  | inactive: -6.29%
5 | Cc1ccc(Cl)c2sc(N3CCN(C(=O)c4ccco4)CC3)nc12 |  | inactive: -8.39%
6 | O=C(CSc1nnc(NC(=O)C2CC(=O)N(c3ccc(F)cc3)C2)s1)NCc1ccco1 (configuration not stated) | inconclusive [inhibitor, partial curve] | 
7 | CC(OC(=O)C1=COCCO1)C(=O)NC(C)c1ccc(Cl)cc1Cl (configuration not stated) | inconclusive [inhibitor, full curve, poor fit] | 
8 | CCOC(=O)N1C(=O)[C@@](c2ccc(Cl)cc2)(C(C)C)N1C(=O)OCC | inconclusive [inhibitor, partial curve] | 
9 | COc1ccc(NC(=O)C/C(C)=N/NC(=O)c2cccs2)c([N+](=O)[O-])c1 |  | inconclusive: -20% [inhibitor]
10 | CCn1c(SCC(=O)Nc2ccccc2)nc2c1c(=O)n(C)c(=O)n2C |  | inactive: 10.4%
11 | CCc1ccc(Oc2cc(C)nc(N)n2)cc1 | inconclusive [inhibitor, single point] | 
12 | COc1ccc(C(=O)NCCONC(=O)c2ccc(OC)cc2)cc1 | inconclusive [inhibitor, partial curve] | 
13 | Cc1cc2nnc(SCC(=O)N(C)C3CCS(=O)(=O)C3)n2c2ccccc12 (configuration not stated) | inconclusive [inhibitor, single point] | 
14 | O=C(NC1CCCC1)C1CCCN(S(=O)(=O)c2ccc(-n3cnnn3)cc2)C1 (configuration not stated) | inconclusive [inhibitor, single point] | 
15 | CCc1nnc(N/N=C/c2ccc(N3CCC(C)CC3)c([N+](=O)[O-])c2)n1N |  | inactive: -9.93%
16 | O=C1c2ccccc2-c2n[nH]c(=O)c3ccc(N4CCCCC4)c1c23 | inconclusive [inhibitor, full curve] | 
17 | CCOC(=O)C1=C(COC(=O)c2ccccc2OC)NC(=O)NC1C (configuration not stated) | inconclusive [inhibitor, partial curve] | 
18 | CC1c2ccsc2CCN1S(=O)(=O)c1ccccc1 (configuration not stated) | inconclusive [inhibitor, single point] | 
19 | O=c1[nH]c(/C=C/c2cccc([N+](=O)[O-])c2)c([N+](=O)[O-])c(=O)[nH]1 | inconclusive [inhibitor, partial curve] | 
20 | CCN(CC(=O)Nc1ccccc1C(F)(F)F)C(=O)CCc1nc2sc3c(c2c(=O)[nH]1)CCCC3 |  | inactive: -5%
21 | CCN(c1ccc(C(=O)CN2C(=O)NC3(CCOc4ccccc43)C2=O)cc1)S(C)(=O)=O (configuration not stated) |  | inactive: 5.43%

Row | Compound | Potency | activity change, negative = inhibition
22 | CC(NC(=O)CCc1nnc(Cc2cccc(C(F)(F)F)c2)o1)C1CC1 (configuration not stated) | inconclusive [inhibitor, full curve, poor fit] | 
23 | CS(=O)(=O)N1CCC(C(=O)Nc2cc(Cl)ccc2Cl)CC1 | inconclusive [inhibitor, partial curve, poor fit] | 
24 | Cc1cccc(C)c1OC(=O)c1ccccc1 |  | inactive: -7.96%
25 | O=C(Nc1ccc(Cl)cc1)N(Cc1nc2ccccc2c(=O)[nH]1)Cc1cccs1 | inconclusive [inhibitor, partial curve] | 
26 | CCN(C(=O)c1cc2c(=O)n3ccccc3nc2n1CCCOC)C1CCCCC1 | inconclusive [inhibitor, single point] | 
27 | CN(C(=O)c1ccc(NC(=O)Cc2cccc(NC(=O)C3CCCN(C(=O)CCc4ccccc4)C3)c2)cc1)C1CC1 (configuration not stated) | inconclusive [inhibitor, single point] | 
28 | CCC1=C2CC[C@H]3C(=O)N(CC)C(=O)[C@H]3[C@H]2[C@@]2(Cc3ccccc3)C(=NCc3ccccc3)OC(=O)N2C1=O |  | inconclusive: -9.74% [inhibitor]
29 | CCCOc1cccc(-c2cc(C(=O)NNC(=S)NCC)c3ccccc3n2)c1 |  | inactive: -21.4%
30 | Cc1ccc(S(=O)(=O)NN2C(=O)/C(=C\c3ccc(Cl)cc3)SC2=S)cc1 | inconclusive [inhibitor, partial curve] | 
31 | CC(C)C[C@H](NC(=O)[C@@H]1Cc2ccccc2CN1)C(=O)Nc1ccc(C(C)C)cc1 | inconclusive [inhibitor, full curve] | 
32 | CC(C)(C)c1ccc(S(=O)(=O)Nc2ccc(C(=O)N3CCCC3)cc2)cc1 | inconclusive [inhibitor, single point] | 
33 | CC(=O)c1c(O)c2cccc3c2n(c1=O)CCC3 |  | inactive: 12.6%
34 | CC1CCC(C(C)C)C(OCC(O)CNC(C)c2ccccc2)C1 (configuration not stated) | inconclusive [inhibitor, partial curve] | 
35 | C=C[C@]1(C)C=C2C(=O)[C@@]3(O)OC(=O)[C@@]4(CCCC(C)(C)[C@H]34)[C@@]2(O)CC1 | inconclusive [inhibitor, full curve] | 
36 | COc1cccc(Cn2c(=O)sc3ccccc3c2=O)c1 |  | inactive: -29%
37 | Cc1cc(S(=O)(=O)N2CCCC2)ccc1OCC(=O)Nc1ccc(C(N)=O)cc1 | inconclusive [inhibitor, partial curve, poor fit] | 
38 | CCOc1cc(/C=C/c2ccc3cccc([N+](=O)[O-])c3n2)cc(Cl)c1O |  | inactive: -22.3%
39 | Cc1cc(NC(=O)Cc2cccs2)no1 | inconclusive [inhibitor, single point] | 
40 | CC(C)C(CCNC(=O)CC(Cc1ccccc1)c1ccco1)c1ccco1 (configuration not stated) | inconclusive [inhibitor, partial curve] | 
41 | Cc1cccc(-c2nc3ccccc3c(=O)n2NC(=S)N(C)C)c1 |  | inactive: -4.1%
42 | O=C(CCN1C(=O)c2ccccc2S1(=O)=O)Nc1ccccc1F | inconclusive [inhibitor, partial curve] | 
